The chains are these.
B1: LINE1-mini (parent)
chain: GGCAGAGCUCAACACAGCGUGGCAAAGUGGCUGUGGCUAGACUGCC

Read counts are not given, so values of variants with three or more changes are uncertain.

The data set covers variants of B1. Put plainly: self-cleavage, relative activity (ratio to wild type); higher = more cleavage; in vitro, sequencing; the parent is a self-cleaving ribozyme.
In the case of C10A G21U U34C C37U, the self-cleavage is 0.01. Then C10A C13U C37G, with 0; and C10A A11C A26G, with 0.01. Then U9G U28A G29U C31A, with 0.09; and C10A C15A G17A G30A U43A, with 0.05. With U9G U20C A26C the figure was 0.02. In the case of U9G G22A A24G A39G C42A, the self-cleavage was determined as 0.02. With C10A A12C A24G U32A the figure was 0. Then U9G G22A G29U U34C G36U C37G, with 0.02; and U9G G30A C31G, with 0.08; and C10A A11U G22U G35C C37G, with 0.

Consider C10A A16G G19C G21C G35U, for which the self-cleavage was found to be 0. Then C10A U20C A24G C31U U34A, with 0; and U9G C42G C46A, with 0.2; and U9G G19U U20C C23U A26G, with 0.04.

Take C10A A24C A25C G27U C37A A39U C46U: the self-cleavage came out at 0.

Turning to C10A G33C C42G, the self-cleavage was found to be 0.27. C10A C18A G22A: the self-cleavage came to 0.05. With C10A A25G C46U the figure was 0.03. Then C10A C13A A14U G29U, with 0.02; and U9G G21A U38G, with 0.01.

Consider C10A G40C G44C, for which the self-cleavage turned out to be 0.07. With C10A A14G G21A G40C the figure was 0.02; with C10A C15G U20G, 0.02; with C10A A14C C18A G29A G36C, 0.03. Then C10A C18G G33U, with 0.02; and C10A A12C G27C, with 0.02. Then C10A U32C C37U C42U C46G, with 0.01; and C10A U34A G36A, with 0.01. For C10A C18G A39G A41U, the self-cleavage was determined as 0.

C10A A11C G29C: the self-cleavage was found to be 0.07. Then C10A A14G G27C, with 0.03. Take U9G C15U G21U G27A: the self-cleavage worked out at 0.01. For the variant C10A U28C A39C, the self-cleavage was determined as 0.06. With C10A G19U A39C C42A the figure was 0.03; with C10A G17U G19A C37A C45U, 0.01; with C10A A26G G30U U32G C45A, 0.02. Then C10A G21A U28G, with 0.02; and U9G C18A U28A C37A, with 0.23; and C10A A12C A14G A16G C46A, with 0.02. With C10A A11G C37U the figure was 0.02; with U9G G21C G27U G44A, 0.04; with C10A A24U U28A A39G, 0. As to C10A U20A G36A, the self-cleavage came out at 0.04. Then C10A A25U U28G U43C, with 0.01.

Consider C10A A12U C23A C42U, for which the self-cleavage turned out to be 0.01. With U9G G44C C45A the figure was 0.03; with C10A G22A A25G C31U, 0.01. Then U9G C18U G29A C37G U38G, with 0.01; and C10A G21U G29U C37G, with 0.02. With C10A C23A G30U C42U the figure was 0.07; with C10A C13U G36C C37U C42A C46A, 0. Take C10A A24U U34A G44C: the self-cleavage is 0.01.

Regarding C10A G17A A26C G30U G33U, the self-cleavage came out at 0.01. With U9G U28A G36A G40A C45U the figure was 0.34; with C10A A25C C31A, 0.04. In the case of C10A U20A A24C A41C, the self-cleavage was 0.01. Then U9G G30A A39U A41C C45A, with 0.06; and C10A G17C C18G U34A C37U, with 0.01; and C10A C18A A25G A26C A39C G40C U43C, with 0. Then C10A A11C C23U A24C U38C, with 0; and C10A C23G G30A, with 0.04; and C10A G22A G27U G30A, with 0.02. With C10A G19A A39G the figure was 0; with U9G C15U G35U, 0.06.

As for C10A A12C C18A A24C, the self-cleavage is 0.01. Then C10A G36C C37G U38G A39U U43C, with 0.01.

U9G C37A G40A C42G: the self-cleavage worked out at 0.09. Then U9G G27A C45A, with 0.01; and C10A C15A G17U U20C, with 0.03. Then C10A C18G A39C, with 0.01; and C10A C13A G44U, with 0.05. C10A C18G G44A: the self-cleavage amounted to 0.04. Regarding C10A G19U U34G G40A, the self-cleavage was 0.01. As for U9G U20A G35A A41G, the self-cleavage was 0.05.

Regarding C10A G17C G21U, the self-cleavage was determined as 0.09. With C10A G22C G27U U34G the figure was 0; with C10A C13G G27A G36U U43G, 0; with C10A C15U A16U A24C A39G G40C, 0.03. Regarding C10A A16G A25G G35U C37U, the self-cleavage came to 0.01. With U9G C15A G30A the figure was 0.1. C10A G36C A39G G40C: the self-cleavage stood at 0. Then C10A C15G C23G C37U, with 0.01; and C10A G22C G29C C46G, with 0.04. Then C10A A12G U32C G33A G44A, with 0.05; and U9G C18U G21U, with 0.03.

For the variant C10A A14C G27U G44A, the self-cleavage stood at 0.02. With C10A G29U U34A the figure was 0.05. With C10A G17C C23U the figure was 0.02; with C10A G22A C37G, 0.02; with C10A G19A G21U A24U A26G, 0.04. Then C10A C15A G19U C31G, with 0; and U9G U34G G35U, with 0.09; and C10A C18U G40A C45G, with 0.01. Take C10A A39U G40C: the self-cleavage came to 0.01. With U9G G36C C42G C45A the figure was 0.03; with C10A G17U A39G, 0.01; with C10A C18A G19C U43A, 0.02. C10A G21A G22C G29A: the self-cleavage came to 0.04. Then C10A G19U A25C G30A, with 0.04; and C10A G17U A24G A26C A41C, with 0.08. For the variant C10A G19A U32G, the self-cleavage worked out at 0.06.

With C10A G29U C37U, the self-cleavage is 0.

In the case of C10A C13A G29C C31U C37U G44A, the self-cleavage turned out to be 0.01.

Turning to U9G G17A C42A U43G G44A, the self-cleavage was found to be 0.09. As for U9G C23A A26G, the self-cleavage was 0.07. With U9G G29U G40A the figure was 0.1. With C10A A16C G19U the figure was 0.02; with C10A A11U A25U G30U C31A, 0.

Turning to C10A C18U U28A, the self-cleavage was determined as 0.03. With C10A A14C A16C U38G G44A the figure was 0.01. Then C10A C18G G33U A39U U43C, with 0. Then C10A A11C G30A G40U A41U U43G, with 0.03; and C10A G21A G22A G40A, with 0.01. With C10A G29U G35A, the self-cleavage came to 0.01. As for C10A G30U U43A, the self-cleavage came to 0.01. With C10A G30U U43C the figure was 0.01; with C10A C13U A25U G33C U38C, 0.01; with C10A A11U C15A, 0.03. For the variant C10A A11U C15G, the self-cleavage was 0.01.

For C10A C13A G21U G29U, the self-cleavage came out at 0.01. Then C10A C15U G36A C42G, with 0.02.

On to C10A U32G U38G C46G, for which the self-cleavage was 0.02. For the variant U9G C15U A39C, the self-cleavage stood at 0.04.

As to U9G C31U C37G, the self-cleavage turned out to be 0. With C10A A11C U28G the figure was 0.02; with C10A C13A U43G G44C, 0.01. With C10A A41G G44A the figure was 0.04; with C10A A16U U20G U34G, 0.01; with C10A U20A A26U U32G G36C G44U, 0. As for U9G G19A G40A, the self-cleavage is 0.05. Then C10A U20G G35U, with 0; and C10A G19A A24C, with 0; and C10A U20A G30C, with 0.08. Then C10A U28A G29U, with 0.04; and C10A C13G G17U U20C G35U, with 0.04; and C10A C18A A41C, with 0.04. In the case of C10A G19A G30C C37G, the self-cleavage is 0.02. With C10A A16G A39U the figure was 0.06; with C10A G21A G35A C42G, 0.03.

With C10A A25U G33A A39U G40A, the self-cleavage came to 0.01.

For C10A G21U G35U U43A, the self-cleavage stood at 0.01. On to C10A A12G C15U A16C C42G, for which the self-cleavage was 0.04. With C10A U34A C45A the figure was 0.02; with C10A G40A G44A, 0.03; with U9G U32A A41U C46U, 0.01. For the variant C10G A11G C15A G17A, the self-cleavage was found to be 0.02.

For C10A G27A G29C U38G, the self-cleavage is 0.04. As for C10A A12C A25G G33U, the self-cleavage is 0.04.

On to C10A A14C G29A G35C, for which the self-cleavage amounted to 0.02. Then C10A A24G U32G, with 0.08; and C10A C13A C15A G19A C23A, with 0.04; and C10A G27U C37A U38A, with 0.

Consider U9G G19U A41U, for which the self-cleavage amounted to 0.04. With C10A U38C A41G the figure was 0.1; with C10A G22U C31U U38C, 0.11. Consider C10A C15G C18A G30A G33A C42G, for which the self-cleavage was found to be 0.02. With C10A A26C U34C the figure was 0.01. In the case of U9G C23A G30A G33A C46U, the self-cleavage is 0.04. In the case of U9G C23U U43A, the self-cleavage worked out at 0. Then C10A G19U G33U G40A, with 0.02; and C10A U32C G35U, with 0.01; and C10A A25G A26G C42A, with 0.01.

Take C10A A12C A16C G29C: the self-cleavage amounted to 0.03.

With C10A A11C C13A U20G G22C C23A G33U, the self-cleavage came to 0.01. Regarding C10A A25U A26C U28G, the self-cleavage was found to be 0.09. With C10A C37G G44A the figure was 0.02.

(Values after the RNAGym collection of RNA variant scans (doi:10.7554/elife.90254).)
